According to the BET-seq Pho4 binding data (Le et al. 2018):
The other results are listed elsewhere or left out. The energies were worked out here from pooled read counts, against the library average; single values are noisy.

Molecular target: T1, Pho4 (S. cerevisiae) (UniProt P07270)
T1 sequence: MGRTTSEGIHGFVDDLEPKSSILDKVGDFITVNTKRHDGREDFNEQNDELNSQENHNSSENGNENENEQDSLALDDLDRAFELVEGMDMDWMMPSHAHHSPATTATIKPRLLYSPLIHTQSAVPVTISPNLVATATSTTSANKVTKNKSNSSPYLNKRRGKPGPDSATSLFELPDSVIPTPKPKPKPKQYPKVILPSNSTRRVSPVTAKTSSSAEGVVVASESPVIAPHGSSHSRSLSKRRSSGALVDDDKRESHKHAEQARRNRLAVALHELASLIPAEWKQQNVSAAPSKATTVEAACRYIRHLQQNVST
Experiment: relative binding free energy (BET-seq); higher = weaker binding
Settings: reference: library average

Row | Sequence | relative binding free energy [kcal/mol]
1 | GTGTACACGTGGGGTA | -0.08
2 | AATGGCACGTGTGTGC | -0.13
3 | AGGTTCACGTGTAAGG | 0.32
4 | AGGGACACGTGTCTAG | 0.02
5 | CTAAGCACGTGTGATG | 0.01
6 | ATGGACACGTGGGCTT | -0.1
7 | GTGGACACGTGCGTGA | 0.07
8 | CGTCGCACGTGTTAGG | -0.06
9 | AGTTGCACGTGGAGAA | -0.02
10 | TTTTGCACGTGTCATA | -0.14
11 | AGTTTCACGTGAATGC | 0.29
12 | TATGTCACGTGATTAT | 0.16
13 | CTATACACGTGTGTGA | 0.11
14 | TCGATCACGTGTTAGG | 0.04
15 | TGGTGCACGTGTTATA | -0.01
16 | TTTTACACGTGAGAAA | 0.37
17 | TGCTTCACGTGATTAT | 0.29
18 | TAAGTCACGTGAGGTT | 0.37
19 | GTCAGCACGTGATGTG | 0.16
20 | TCGGGCACGTGGTGGT | -0.1
21 | TGGGTCACGTGGGGAA | -0.02
22 | TATTGCACGTGGCTGG | -0.13
23 | AGGAGCACGTGGTGCG | -0.09

Row | Sequence | relative binding free energy [kcal/mol]
24 | ATATACACGTGTTTTG | 0.01
25 | GTTTTCACGTGGAGGA | 0.28
26 | GTTGGCACGTGCTGTT | -0.13
27 | TTTTACACGTGTAATA | 0.27
28 | TGTGCCACGTGAGTTG | 0.16
29 | GCTGACACGTGTGTGG | 0.04
30 | GCGTGCACGTGATTGT | 0.03
31 | AGGTACACGTGTTAAA | 0.08
32 | TGGGTCACGTGTGTAT | 0.13
33 | GATGGCACGTGTTTGT | -0.02
34 | AATGGCACGTGCTGGT | -0.22
35 | ATTGGCACGTGGACTT | -0.09
36 | CTTGGCACGTGTAGTT | -0.03
37 | ATTAACACGTGTGGTG | -0.01
38 | CTAGGCACGTGAGAAT | 0.44
39 | AAGGACACGTGGCGTG | -0.1
40 | AGCGCCACGTGAGGGT | 0.13
41 | CATGACACGTGGTGGT | -0.08
42 | GTCTGCACGTGTGAAT | 0.14
43 | TGGCGCACGTGTCAGT | 0.11
44 | TCTGACACGTGCTGGG | 0.03
45 | GTAAGCACGTGATCGG | 0.02
46 | TTTGCCACGTGGGCAT | -0.2

Row | Sequence | relative binding free energy [kcal/mol]
47 | AATTACACGTGATTTA | 0.16
48 | GGGAGCACGTGCTTAT | -0.06
49 | ACGTTCACGTGGTGGA | 0.11
50 | TATTACACGTGGATGT | 0.15
51 | TCATTCACGTGTGGTT | 0.22
52 | TATGTCACGTGGCTCT | 0.06
53 | ATTAACACGTGGGGTT | -0.09
54 | TACGGCACGTGCTGGT | -0.17
55 | TATGTCACGTGGAGAT | 0.08
56 | GGGTGCACGTGACCGT | 0.11
57 | GGGCCCACGTGGGGGG | -0.3
58 | AGGTGCACGTGGTCGT | -0.13
59 | ATTCGCACGTGTGAGT | 0.11
60 | AGGGTCACGTGGACGG | 0.13
61 | CATTTCACGTGTGGAG | 0.29
62 | TTTAGCACGTGTTGTG | -0.09
63 | AAAATCACGTGGAGTT | 0.16
64 | TTGTGCACGTGGGGAG | -0.15
65 | TTACGCACGTGGGGGA | -0.23
66 | GGGCACACGTGGATGA | 0.15
67 | ATCTTCACGTGTTGAT | 0.18
68 | GGTGCCACGTGAGGTA | 0.2
69 | AGTGACACGTGTCTTG | -0.05

Row | Sequence | relative binding free energy [kcal/mol]
70 | ACCGGCACGTGCGGGG | -0.19
71 | TGTGGCACGTGTGGGC | 0.01
72 | GTAGGCACGTGAGATA | 0.23
73 | TAGGGCACGTGATGAA | -0.04
74 | TACTGCACGTGGTGTC | -0.05
75 | TTAGGCACGTGCTTTT | -0.19
76 | TTTGTCACGTGGGCCG | -0.17
77 | GGCTGCACGTGCATGG | 0.02
78 | GTGGGCACGTGTGTGA | -0.04
79 | GATCTCACGTGCGTGT | 0.22
80 | GAATTCACGTGCAGGG | 0.33
81 | TTATTCACGTGGGTCA | 0.09
82 | TGCGGCACGTGAGGCT | 0.12
83 | ATATTCACGTGGGGAC | 0.06
84 | CGGATCACGTGGTTTA | 0.17
85 | AGGGTCACGTGTGATC | 0.36
86 | ATGAGCACGTGTTCGT | -0.16
87 | TTTAACACGTGATGCT | 0.01
88 | CGGCTCACGTGTGTTG | 0.21
89 | GGCGGCACGTGGTGTG | -0.16
90 | TCTGTCACGTGAGGCT | 0.21
91 | TGGGGCACGTGAAAAA | 0.14
92 | CGTGGCACGTGTTTTT | -0.06

Row | Sequence | relative binding free energy [kcal/mol]
93 | CTCAGCACGTGGGTGG | -0.27
94 | TGTCACACGTGGGTCA | -0.05
95 | CGGGCCACGTGAAGTG | 0.25
96 | TGGTCCACGTGAGATT | 0.41
97 | AATGCCACGTGCGGGG | -0.1
98 | CAGGTCACGTGTTAAG | 0.17
99 | TAGGGCACGTGACGGG | -0.02
100 | TTGTGCACGTGTGCTA | -0.02
101 | TTTTGCACGTGAGGGA | 0.28
102 | TAATTCACGTGAAAAG | 0.43
103 | TCGGTCACGTGACTTG | 0.37
104 | CCCGGCACGTGGGTGG | -0.22
105 | GAAAGCACGTGAAGGA | 0.5
106 | AGGCGCACGTGTTCGG | -0.1
107 | CTTTTCACGTGTAGCT | 0.2
108 | TTAGGCACGTGATGGT | 0.07
109 | TAGGACACGTGTAATA | 0.19
110 | TTTTACACGTGACATA | 0.23
111 | TGTTGCACGTGAGGGA | 0.19
112 | TTGGGCACGTGTGGTA | -0.05
113 | GTTGGCACGTGGTCTG | -0.16
114 | TTGCTCACGTGCGGGT | 0.28
115 | TAGAACACGTGTTTGA | -0.08
